Reference: the supplement of paper PMC4604168 (melanoma cell lines)
The list shows a part of the results. Many values rest on one well or one pass, so single values are uncertain.
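Also: cell number obtained by counting DAPI-stained nuclei in high-throughput microscope images with image analysis software, screen run in 1,536-well plates.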

The molecules below were run on MEL-HO (assay: cell count relative to DMSO control; melanoma cells; higher = more viable cells). Settings: library dose: low library concentration; 72 h.
Work on `CN(c1ncccc1CNc1nc(Nc2ccc3c(c2)CC(=O)N3)ncc1C(F)(F)F)S(C)(=O)=O` + O=c1cc(-c2cccc3c2Sc2ccccc2S3)oc(N2CCOCC2)c1 [KU55933] (first compound 0.08 µM, partner dose 1 µM) yielded a cell count of 69%.
Molecule `CN(c1ncccc1CNc1nc(Nc2ccc3c(c2)CC(=O)N3)ncc1C(F)(F)F)S(C)(=O)=O` + N#Cc1c(O)c2c(-c3ccc(-c4ccccc4O)cc3)csc2[nH]c1=O [A769662] (first compound 0.08 µM, partner dose 2 µM) has a cell count of 97.7%.
`CCCS(=O)(=O)Nc1ccc(F)c(C(=O)c2c[nH]c3ncc(Cl)cc23)c1F` + Oc1cc(-c2nc(-c3ccccc3)[nH]c2-c2ccncc2)ccc1Cl [L779450] (first compound 0.08 µM, partner dose 0.2 µM) showed a cell count of 91.8%.
Work on `NC1(c2ccc(-c3nc4ccn5c(=O)[nH]nc5c4cc3-c3ccccc3)cc2)CCC1` + O=C(O)C(=O)Nc1sc2c(c1C(=O)O)CCNC2 [TCS401] (first compound 0.4 µM, partner dose 1.66667 µM) yielded a cell count of 73.1%.
For `CN(c1ncccc1CNc1nc(Nc2ccc3c(c2)CC(=O)N3)ncc1C(F)(F)F)S(C)(=O)=O` + Cn1cc(/C=C2\C(=O)Nc3cccnc32)c2ccccc21 [GW441756] (first compound 0.08 µM, partner dose 0.4 µM), the cell count was 75.5%.
With `CS(=O)(=O)c1ccc(C(=O)Nc2ccc(Cl)c(-c3ccccn3)c2)c(Cl)c1` [vismodegib] + COc1cc2ncnc(Nc3ccc(Oc4ccccc4)cc3)c2cc1OC [SrcI1] (first compound 1 µM, partner dose 2 µM) the cell count was 91.3%.
In the case of `NC1(c2ccc(-c3nc4ccn5c(=O)[nH]nc5c4cc3-c3ccccc3)cc2)CCC1` + COc1ccc(-c2ccc3c(N4CCOCC4)nc(N4C[C@@H](C)O[C@@H](C)C4)nc3n2)cc1CO [KU0063794] (first compound 0.4 µM, partner dose 0.02 µM), the cell count is reported as 86.3%.
`CN(c1ncccc1CNc1nc(Nc2ccc3c(c2)CC(=O)N3)ncc1C(F)(F)F)S(C)(=O)=O` + O=C1NC(=O)/C(=C/c2ccc(-c3ccc(F)cc3O)o2)S1 [AS252424] (first compound 0.08 µM, partner dose 1 µM) gave a cell count of 94.9%.
`CS(=O)(=O)c1ccc(C(=O)Nc2ccc(Cl)c(-c3ccccn3)c2)c(Cl)c1` [vismodegib] + COc1ccc(COc2ccc(Cc3cnc(N)nc3N)cc2OC)cc1 [GW2580] (first compound 1 µM, partner dose 1 µM) gave a cell count of 107%.
`CS(=O)(=O)c1ccc(C(=O)Nc2ccc(Cl)c(-c3ccccn3)c2)c(Cl)c1` [vismodegib] + COc1ccc2c(c1)CCC1C2CCC2(C)C(NCCCCCCN3C(=O)C=CC3=O)CCC12 [U73122] (first compound 1 µM, partner dose 0.4 µM) was tested, and the cell count was 99.5%.
In the case of `NC1(c2ccc(-c3nc4ccn5c(=O)[nH]nc5c4cc3-c3ccccc3)cc2)CCC1` + Cn1cc(/C=C2\C(=O)Nc3cccnc32)c2ccccc21 [GW441756] (first compound 0.4 µM, partner dose 0.4 µM), the cell count is reported as 87%.
Work on `C=C(c1ccc(C(=O)O)cc1)c1cc2c(cc1C)C(C)(C)CCC2(C)C` [Bexarotene] + O=C(Nc1ccccc1)c1cc([N+](=O)[O-])ccc1Cl [GW9662] (first compound 2 µM, partner dose 2 µM) yielded a cell count of 85.6%.
For `NC1(c2ccc(-c3nc4ccn5c(=O)[nH]nc5c4cc3-c3ccccc3)cc2)CCC1` + COC(=O)c1sccc1S(=O)(=O)Nc1ccc(Nc2ccccc2)cc1OC [GSK0660] (first compound 0.4 µM, partner dose 1 µM), the cell count was 83.5%.
`CCCS(=O)(=O)Nc1ccc(F)c(C(=O)c2c[nH]c3ncc(Cl)cc23)c1F` + O=C(O)C(=O)Nc1sc2c(c1C(=O)O)CCNC2 [TCS401] (first compound 0.08 µM, partner dose 1.66667 µM) showed a cell count of 85.2%.
Work on `CS(=O)(=O)c1ccc(C(=O)Nc2ccc(Cl)c(-c3ccccn3)c2)c(Cl)c1` [vismodegib] + O=C(O)C(=O)Nc1sc2c(c1C(=O)O)CCNC2 [TCS401] (first compound 1 µM, partner dose 1.66667 µM) yielded a cell count of 99.3%.
